According to PubChem BioAssay (NCI):
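Results reflect a 48-hour exposure of cells in 96-well plates to compound at five concentrations. The concentration for 50% growth inhibition is given as GI50. Definition used: TGI = concentration required for complete inhibition of growth.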

System: NCI-H322M lung
Experiment: growth of human tumour cells (NCI), 48 h

| Structure (SMILES) | TGI | GI50 |
| --- | --- | --- |
| CCOC(=O)[C@H]1C[C@]23CN(C(=O)OC(C)(C)C)CC[C@H]2CCC2(SCCCS2)[C@@H]3N1C | > 100 µM |  |
| O=C1c2ccccc2C(=O)c2c(NC(=O)c3ccc4c5c(ncnc35)-c3ccccc3C4=O)cccc21 | > 100 µM |  |
| COP(=O)(C(/C=C/c1ccccc1)OC(C)=O)[C@@H]1CCCC[C@H]1N(CC(C)(C)C)C(C)=O (some centres undefined) | > 100 µM |  |
| CC1OC(OC2C(O[C@@H]3C[C@@H]4CC[C@@H]5[C@H](CC[C@]6(C)[C@@H]7[C@H](C[C@@H]56)O[C@]5(CC[C@@H](C)CO5)[C@H]7C)[C@@]4(C)C[C@H]3O)OC(CO)C(OC3OC(CO)C(O)C(O)C3O)C2O)C(O)C(O)C1O (some centres undefined) | 4.92 µM |  |
| CO[C@H](c1ccccc1)[C@H](C)N(C)c1ccc2ccccc2c1C1=NC(C)(C)CO1 | 52.7 µM |  |
| CCCCCc1c(C)[nH]c(/C=c2\[nH]/c(=C3/C=c4ccccc4=N3)cc2OC)c1C | 7.48 µM | 0.455 µM |
| CCCCOc1ccc(S(=O)(=O)/N=C(\NN)Nc2ccc(Cl)cc2)cc1 | > 100 µM |  |
| Cc1cc(C)c(NS(=O)c2cccc([N+](=O)[O-])c2)c(C)c1 (centres undefined) | > 100 µM |  |
| FC(F)(F)C1=NC(=NNc2nnc(-c3ccccc3)c(-c3ccccc3)n2)N=C(C(F)(F)F)C1 | > 100 µM |  |
| O=C1C2Nc3ccccc3SC2C(=O)N1c1cccc([N+](=O)[O-])c1 (centres undefined) | > 100 µM |  |
| COc1cccc(-c2cc(=O)c3cccnc3[nH]2)c1 | > 100 µM |  |
| CC(C)(C)c1cc(C(C)(C)C)c2sc(=S)oc2c1O | 25.3 µM |  |
| C=CCC1=CC2(OC)C(=O)C(OC)(OC)C1C1C(OC)(OC)C(=O)C(OC)=CC12CC=C (centres undefined) | > 100 µM |  |
| O=C(CCO)OCCCCCC/C=C\CCCCCC/C=C\CCCCCCCCOC(=O)CCO | 30.9 µM |  |
| CCN(CC)c1ccc2nc3c4ccccc4c(=NC(=O)c4ccccc4-c4c5ccc(N(CC)CC)cc5[o+]c5cc(N(CC)CC)ccc45)cc-3oc2c1 | 9.75 µM | 2.45 µM |
| CP(C)C.[Ag][I] | > 100 µM |  |
| O=C(CCc1cccc(O)c1)NCCc1cccc(OCc2ccccc2)c1 | 76.1 µM |  |
| OC(c1ccccc1)c1c(-c2ccccc2)oc(-c2ccccc2)c1C(O)c1ccccc1 (centres undefined) | 25.2 µM |  |
| NNC(=S)N/N=C/C(Cl)=C(\Cl)C(=O)O | > 100 µM |  |
| CCOc1ccc2c(c1)NC(=O)C(C1OC(c3ccccc3)=CC1=O)S2 (centres undefined) | > 100 µM |  |
| COc1ccc(C2C3=C(COC3=O)N(CCO)c3cc4c(cc32)OCCO4)cc1OC (centres undefined) | > 50 µM | 11 µM |
| CCCCCCCCCC(=O)CC(=O)c1c(O)cc(O)cc1O | > 75 µM |  |
| CCCCCC(=O)Cc1cc(OC)cc2c1C(=O)Oc1cc(O)c(C(=O)O)c(CC(=O)CCCCC)c1O2 | > 100 µM |  |

| Structure (SMILES) | TGI | GI50 |
| --- | --- | --- |
| O=S(Cc1cc2c(cc1Br)OCO2)c1ccccc1 (centres undefined) | > 100 µM |  |
| CCOC(=O)C(Cc1ccc(OC)cc1)C(=O)OCC | 23.5 µM | 10.3 µM |
| COc1ccc(C(=O)c2ccc(-n3c4ccccc4c4ccc5c(c43)C(=O)C=CC5=O)cc2)cc1 | 18.4 µM |  |
| O=C(/N=C/c1c(O)c2ccccc2oc1=O)NC1CCCCC1 | > 100 µM |  |
| Cc1cc(C)c2c(c1)C(=O)C1(C2)Cc2c(ccc(C)c2C)C1=O (centres undefined) | > 100 µM |  |
| Cc1onc(-c2c(F)cccc2Cl)c1C(=O)N[C@@H]1C(=O)N2[C@@H]1SC(C)(C)[C@@H]2C(=O)O | > 100 µM |  |
| Nc1cnc2c(c1)c(=O)nc1n2CCS1 | > 100 µM |  |
| Cc1cc2nc3c4ccccc4n(CCN(C)C)c3nc2cc1C | 7.6 µM | 1.86 µM |
| Oc1[nH]c2ccccc2c1N=NC(=S)N1CCCC1 | 47.9 µM |  |
| O=C(N/C(=C/c1ccc(Cl)cc1)c1nc2ccccc2c(=O)n1Nc1ccc([N+](=O)[O-])cc1[N+](=O)[O-])c1ccccc1 | > 100 µM |  |
| O=C1c2ccccc2C(=O)c2sc(Nc3ccc(Cl)c(Cl)c3)nc21 | 29 µM |  |
| Cc1cc(=O)oc2c(CNC(C(=O)O)C(C)O)c(O)ccc12 (centres undefined) | > 100 µM |  |
| CCNCCNc1cc(-c2cccc(C(F)(F)F)c2)c(C#N)c2nc3ccccc3n12 | 3.14 µM | 1.66 µM |
| CC(OCc1ccccc1)C(NC(=O)C1CSSCC(NC(=O)C(Cc2ccccc2)NC(=O)OCc2ccccc2)C(=O)NC(Cc2ccccc2)C(=O)NC(Cc2cn(C=O)c3ccccc23)C(=O)NC(CCCCNC(=O)OCc2ccccc2)C(=O)NC(C(C)OCc2ccccc2)C(=O)N1)C(N)=O (centres undefined) | > 100 µM |  |
| CCCCCCC1N=C(N)N=C(N)N1c1ccc(Cl)cc1 (centres undefined) | > 100 µM | 10.2 µM |
| COC(=O)C(=O)C1CCCCC(C2=NC3NN=C(N)N3C2=O)C1=O (centres undefined) | > 100 µM |  |
| CC(=O)O/C=C\OC1CCCC1 | > 100 µM |  |
| CCCOCN1COCN=C1NC#N | > 100 µM |  |
| CC(C)NC(=O)O/N=C1\CCC2[C@@H]3CC=C4C[C@@H](OC(=O)NC(C)C)CC[C@]4(C)C3CC[C@]12C (some centres undefined) | 6.11 µM |  |
| Cc1ccc(-c2cc(/C=N/O)on2)cc1 | > 100 µM | 82.5 µM |
| CC1(C)O[C@@H](CP(c2ccccc2)c2ccccc2)[C@H](CP(c2ccccc2)c2ccccc2)O1 | 60.3 µM |  |
| CS(=O)(=O)c1nc(Cl)c(Cl)c(C#N)c1Cl | 31.5 µM |  |
| CON | > 100 µM | > 100 µM |

| Structure (SMILES) | TGI | GI50 |
| --- | --- | --- |
| COc1cccc(/C=C2\C(=O)N(C(=O)Cc3ccccc3)N=C2C)c1 | > 100 µM |  |
| O=C(/C=C/c1ccc(F)c(F)c1)OCCc1ccccc1 | > 100 µM |  |
| CCCc1ccc(OCC(=O)N/N=C/c2c(-c3ccccc3)[nH]c3ccccc23)cc1 | > 100 µM |  |
| NCCc1ccc2c(c1)C(=O)c1c(O)ccc(O)c1C2=O | > 100 µM |  |
| COC(=O)/C(=N\O)C(C(=O)C=C(C)C)C(=O)C(=O)Nc1ccccc1C (centres undefined) | > 100 µM |  |
| CC1C(=O)C23OC[C@@]1(C)C1(O)CC[C@@H](C)[C@]21CC3=O (some centres undefined) | > 100 µM |  |
| CS[C@@]1(C(=O)Nc2ccc3[nH]nc(-c4ccc(OC(C)C)nc4)c3c2)CCN(CC(=O)N2CC=C(c3ccc(-c4ncn(C)n4)cc3)CC2)C1 | > 100 µM | 0.455 µM |
| CC(C)[O-].CC(C)[O-].[O-]c1cccc2cccnc12.[O-]c1cccc2cccnc12.[Ti+4] | > 100 µM | 38 µM |
| CO[C@]12C[C@H](CNC(=O)c3cc(Br)c(Br)[nH]3)O[C@H]1NC(=O)N2 | > 100 µM |  |
| COC(=O)CCc1ccc2c(c1)CC1(C2)Cc2ccc3c(c2C1)CCC3 (centres undefined) | > 100 µM |  |
| Cc1cc(=O)[nH]c2c3c(ccc12)OC(C)(C)C=C3 | > 100 µM |  |
| COc1ccc2c(c1)CC[C@@H]1[C@@H]2CC[C@]2(C)[C@@H](O)/C(=C/c3ccncc3)C[C@@H]12 | 35.8 µM |  |
| O=C(Nc1ccc(F)cc1)c1cc2ccc(O)cc2oc1=Nc1ccccc1F | 40.7 µM |  |
| COc1ccc(-n2c(=O)n(C)c(=O)n2-c2c(C)c(C)c(C)c(C)c2C)cc1 | > 100 µM |  |
| O=C1CCC(=O)C(C(=O)CCC(=O)Nc2cccc(Cl)c2)C1 (centres undefined) | > 100 µM |  |
| COc1cc(NCc2ccc3n2-c2ccccc2OC3)cc(OC)c1OC | > 100 µM |  |
| COc1ccc2c(c1)c1c3c(ccc4ncn2c43)N(CCN(C)C)CCN=1 | 1.99 µM |  |
| O=[N+]([O-])c1ccc(-c2ccccc2)c([As](=O)(O)O)c1 | > 100 µM | 32.8 µM |
| N#CC[C@H](C1CCCC1)n1cc(-c2ncnc3[nH]ccc23)cn1 | > 100 µM | 23.2 µM |
| O=C(NO)c1cnc(N2CCN(S(=O)(=O)c3ccc4ccccc4c3)CC2)nc1 | 3.26 µM | 0.138 µM |
| CC(=O)OCC(=O)C1(O)C(C)CC2C3C=C(C)C4=Cc5c(cnn5-c5ccccc5)CC4(C)C3C(O)CC21C (centres undefined) | 10.5 µM | 2.69 µM |
| CCOC(=O)c1c(C(F)(F)F)oc2c1ccc1nc3nonc3nc12 | 76.9 µM |  |
| CN(NC(=O)c1cccs1)C1=NCCN1 | > 100 µM |  |

| Structure (SMILES) | TGI | GI50 |
| --- | --- | --- |
| CCOC(=O)C1CC/C(=C(/C#N)C(=O)OC)N1 (centres undefined) | > 100 µM |  |
| CC(O)=NC(Cc1ccc2ccccc2c1)C(O)=NC(Cc1ccc(Cl)cc1)C(O)=NC(Cc1c[nH]c2ccccc12)C(O)=NC(CO)C(O)=NC(Cc1ccc(O)cc1)C(O)=NC(CCCN=C(N)N)C(O)=NC(CC(C)C)C(O)=NC(CCCN=C(N)N)C(=O)N1CCCC1C(O)=NC(C)C(=N)O (centres undefined) | 64.3 µM |  |
| N#CC(c1ccccc1)(c1ccccc1)[C@@H](c1ccccc1)[C@H](Cc1ccccc1)NS(=O)(=O)c1ccccc1 | > 100 µM |  |
| CCc1ccccc1-n1c(N)c(C#N)c(-c2ccc(OC)c(OC)c2)c(C#N)c1=O | 69.2 µM | 23.4 µM |
| C[N+](C)(Cc1ccc(NC(=O)CCCC(=O)ON2C(=O)CCC2=O)cc1)c1ccccc1 | 60.4 µM |  |
| Cc1c(N2C(=O)/C(=C\c3ccc(N(C)C)cc3)N=C2c2ccccc2)c(=O)n(-c2ccccc2)n1C | > 100 µM | 47.5 µM |
| Cc1cccc(N=C2NC(=O)C(CC(=O)Nc3ccc(Cl)cc3C)S2)c1 (centres undefined) | > 100 µM |  |
| Cn1c(N)c(-c2c3ccccc3nc3ccccc23)c(=O)n(C)c1=O | > 100 µM |  |
| Cc1ccc(S(=O)(=O)NCCSS(=O)(=O)c2ccc(C)cc2)cc1 | > 100 µM |  |
| Cc1cc(-c2nc3cc(F)ccc3s2)ccc1NC(=O)C(C)N (centres undefined) | 6.46 µM |  |
| Cc1cc(Br)cc(C)c1NC(=O)C(=O)C1C(=O)C(CC2C(=O)c3ccccc3C2=O)C(=O)CC1(C)C (centres undefined) | > 100 µM |  |
| Oc1[nH]c2ccc(Cl)cc2c1/C=c1/ccc2c(c1)N=C(c1cc(F)cc(F)c1)N=2 | > 100 µM | > 100 µM |
| N#CC(c1ccccc1)N(CCc1ccccc1)C(=O)Oc1ccccc1 (centres undefined) | > 100 µM |  |
| C[C@]12CCCC(=O)C1C[C@H](C(=O)O)CC2 (some centres undefined) | > 100 µM |  |
| C[C@@H](Oc1cc(-c2cnn(C3CC4(CCCNC4)C3)c2)cnc1N)c1c(Cl)ccc(F)c1Cl (some centres undefined) | 7.74 µM | 2.6 µM |
| NC(N)=NS(=O)(=O)c1ccc(NNc2c3ccccc3nc3c(C(=O)Nc4ccc(S(N)(=O)=O)cc4)cccc23)cc1 | > 100 µM |  |
| COc1ccc(C2S/C(=C\c3cccc(O)c3)C(=O)N2NC(=O)Cc2ccccc2)cc1 (centres undefined) | > 100 µM |  |
| N#CC12Cc3ccc4c(c3-c3cccc(c31)CCN2C(=O)c1ccccc1)OCO4 (centres undefined) | > 100 µM |  |
| CCC[CH2][Sn]1([CH2]CCC)[O]C(=O)c2cc(C)ccc2[O]1 | 2.85 µM | 1.51 µM |
| CC(=O)NNc1nc(C)c(C(/C=C/c2ccc(NC(C)=O)cc2)=N/NS(=O)(=O)c2ccc(C)cc2)s1 | > 100 µM |  |
| NC(=O)NC(=O)C1CCCCC1C(=O)O (centres undefined) | > 100 µM |  |
| COc1ccc(NC(=O)O[C@H]2[C@H](O[C@H]3[C@@H](O)COC(O[C@H]4C[C@H]5[C@@H]6CC=C7C[C@@H](O)CC[C@]7(C)[C@H]6CC[C@]5(C)[C@H]4[C@H](C)C(=O)CCC(C)C)[C@@H]3OC(C)=O)OC[C@@H](O)[C@@H]2O)cc1 (some centres undefined) | 30.9 µM | 3.92 µM |
| CC1(C)CC2CC(C)(CN2c2ncnc3ccc(Br)cc23)C1 (centres undefined) | 25.4 µM | 12.8 µM |
